# ± gives the standard deviation of the averaged measurements. In all, about 33,000 sequences were measured (“E-score (dimensionless, -0.5 to 0.5)”: median about -0.046, highest 2% from about 0.36 on). The list shows a part of the results.
# Tested on: T1, SpTbr T-box DNA-binding domain (GST fusion)
# T1 sequence: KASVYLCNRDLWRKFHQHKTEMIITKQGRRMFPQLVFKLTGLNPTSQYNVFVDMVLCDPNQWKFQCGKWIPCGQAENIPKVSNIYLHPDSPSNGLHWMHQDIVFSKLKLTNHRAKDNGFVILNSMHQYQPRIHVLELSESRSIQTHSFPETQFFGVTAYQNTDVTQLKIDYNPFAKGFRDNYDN
# Assay: PBM E-score of 8-mer (E-score (dimensionless, -0.5 to 0.5)); Tbr is Tbrain of the sea star Patiria miniata (Pm) or the sea urchin Strongylocentrotus purpuratus (Sp); higher = stronger binding preference; most listed sequences are background and not binding sites
# Settings: the construct has about 5 more residues each side
# Procedure, shortened: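 Primer extension turned Universal Agilent oligonucleotide arrays double-stranded. They were incubated with 200 nM protein in PBS (pH 7.5); the protein was a GST-fused Tbr T-box DNA-binding domain expressed in BL21 E. coli at 20 °C and purified on glutathione. Every ungapped 8-mer was scored from the scanned, quantified probe intensities, and the Universal PBM Analysis Suite gave each an enrichment E-score averaged over duplicate arrays.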
row,Sequence,PBM E-score of 8-mer
1,AAGACTCG,0.0417 ± 0.017
2,CCGCGGCG,0.0503 ± 0.078
3,CCAGTGAA,-0.225 ± 0.027
4,GACGCCTA,0.243 ± 0.068
5,TCCCCAAA,-0.148 ± 0.057
6,CGATTGTC,0.0208 ± 0.016
7,CAAAAGCC,-0.108 ± 0.0015
8,CTGATCGA,-0.0722 ± 0.0016
9,AATACAGC,-0.119 ± 0.014
10,ACTTCATC,0.0184 ± 0.035
11,GAAGGTAC,-0.239 ± 0.019
12,AGGTCGTG,0.0304 ± 0.017
13,AGGCCACA,0.0262 ± 0.12
14,AGGTAATA,-0.218 ± 0.004
15,GTGGCCCA,-0.164 ± 0.0018
16,ATCCCTCG,-0.0209 ± 0.066
17,ATTCTTCG,-0.0391 ± 0.032
18,GAGGCCAC,-0.00093 ± 0.036
19,CGTGATAA,0.27 ± 0.036
20,AGTTCACC,-0.00201 ± 0.066
21,GTTTGGTA,0.0703 ± 0.013
22,CCTCACAG,0.149 ± 0.032

row,Sequence,PBM E-score of 8-mer
1,AAAGCCTT,-0.0864 ± 0.027
2,CTGCATAA,-0.0815 ± 0.063
3,CAATGATA,-0.0371 ± 0.0073
4,ATTCGATG,-0.303 ± 0.013
5,ATCGCTCA,-0.0113 ± 0.04
6,CATAGGTA,-0.0236 ± 0.14
7,ATTTGAGC,-0.126 ± 0.0046
8,ACAGCCCA,-0.116 ± 0.0052
9,CGATGCAA,-0.159 ± 0.0019
10,CCGACCGG,-0.0611 ± 0.065
11,ATGACATA,-0.126 ± 0.099
12,AGTGTGCA,0.338 ± 0.012
13,CAAGACGA,-0.25 ± 0.0098
14,ACGTTGAT,-0.176 ± 0.07
15,CTGGCGGC,-0.167 ± 0.097
16,GTAGCGTA,-0.107 ± 0.097
17,ATACTTTG,-0.133 ± 0.013
18,GGTCGTGA,0.127 ± 0.035
19,GAGAACCC,0.00749 ± 0.027
20,TCAATGGA,-0.121 ± 0.064
21,CTCTTATA,-0.118 ± 0.01
22,AGATGCAG,-0.222 ± 0.086

row,Sequence,PBM E-score of 8-mer
1,AATTATCT,0.0999 ± 0.086
2,CAGTGCAC,0.1048 ± 0.00095
3,ACCTGACC,0.0637 ± 0.061
4,AAAAACAC,0.264 ± 0.043
5,GACCCCAC,-0.0617 ± 0.0078
6,AAGGCTGA,0.0392 ± 0.035
7,AAATTGTG,0.118 ± 0.03
8,AAGAACAC,0.00158 ± 0.024
9,CTGGTTTC,-0.0938 ± 0.029
10,ACCGAACT,-0.0522 ± 0.0093
11,AGCACAAC,0.00386 ± 0.038
12,CCGCGCAC,0.223 ± 0.01
13,AATCAAAA,-0.185 ± 0.11
14,CCCGCCGG,-0.159 ± 0.14
15,CAATTAAC,0.119 ± 0.041
16,ACGTAGTC,-0.232 ± 0.015
17,GAGGCAGA,0.0647 ± 0.06
18,ACGCAGCC,-0.0847 ± 0.014
19,AAATTAGT,-0.221 ± 0.022
20,AAAAGCCG,0.0208 ± 0.041
21,CCAGTGCC,-0.149 ± 0.034
22,ATTTTGCA,0.115 ± 0.047

row,Sequence,PBM E-score of 8-mer
1,GACCGGCC,-0.0846 ± 0.0048
2,AGCCGTAT,-0.134 ± 0.036
3,CGGGAAAA,0.0794 ± 0.075
4,CCTATAAA,-0.327 ± 0.015
5,GCCGGCGA,0.0956 ± 0.041
6,GACAACAA,0.215 ± 0.015
7,AGAGATAT,0.0415 ± 0.064
8,GAGTGCAC,-0.133 ± 0.015
9,AATTTTCC,-0.079 ± 0.055
10,AGTGAAGA,0.122 ± 0.002
11,AGCGGAAG,-0.0332 ± 0.023
12,AACATTTA,-0.00309 ± 0.054
13,AGCCATGA,-0.0745 ± 0.075
14,GGGAGCCC,-0.254 ± 0.028
15,CTGTTGTA,0.0999 ± 0.01
16,AAAGAACA,-0.142 ± 0.018
17,TAACTTCA,0.0425 ± 0.0037
18,CAGATTAG,-0.156 ± 0.042
19,GATGTCGC,0.148 ± 0.0072
20,GATTGGGA,-0.173 ± 0.0046
21,CTCATACC,0.0524 ± 0.046
22,CGCTAGTA,0.0886 ± 0.0043

row,Sequence,PBM E-score of 8-mer
1,CTGGTGGC,0.106 ± 0.023
2,AATCTCAG,-0.0558 ± 0.035
3,GCTTCACA,0.347 ± 0.013
4,ACTTCTTG,0.0721 ± 0.022
5,ATTATGAA,0.0146 ± 0.04
6,AGTCGCAT,0.0434 ± 0.019
7,GCTCAAAC,-0.0615 ± 0.092
8,GCGAGCAC,0.1 ± 0.013
9,GTGTTCGA,0.151 ± 0.017
10,CGTTTTCA,0.173 ± 0.0049
11,CCGCCCCG,-0.145 ± 0.079
12,ATAAAATA,-0.126 ± 0.014
13,AAACGTCC,-0.0168 ± 0.096
14,AAGTAGAT,-0.15 ± 0.018
15,ACGATGCG,0.143 ± 0.034
16,CGCTCACG,0.222 ± 0.027
17,AACGTACG,0.0909 ± 0.0016
18,ACTGCCTG,-0.17 ± 0.0091
19,ACGTGAAT,-0.0201 ± 0.073
20,CGTCTACC,-0.286 ± 0.028
21,GCGGCTAC,-0.0532 ± 0.044

# From the supplement of paper PMC4166925
